# Hit rate of the full screen: of about 74,000 compounds, about 1,100 (1.5%) were called active. The shares of active, inactive and inconclusive entries below differ from those in the screen. The call rests on the fitted dose curve; in most records, active means well fitted inhibition curve with a large enough effect; inconclusive means small, poorly fitted or top-dose-only effect; inactive means no such curve, though single readings can be large or run the other way. Potencies of inconclusive entries are left out as doubtful fits.
# Target: Polyunsaturated fatty acid lipoxygenase ALOX15 (Homo sapiens) (UniProt P16050)
# Assay: qHTS Assay for Inhibitors of 15-hLO (15-human lipoxygenase); further: nearly all actives have a fitted effect of over 55% in size
# Settings: purified 15hLO-1, xylenol orange hydroperoxide absorbance; activity change, negative = inhibition: at 57.1 µM (top of the series) unless noted
# Procedure, shortened: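 Purified human 15hLO-1 (40 nM final) in 25 mM Hepes pH 7.5, 0.01% Triton X-100 was preincubated with compound 15 min at room temperature, then reacted 6 min with 50 uM arachidonic acid; hydroperoxide detected by Fe-XO, 573/405 nm absorbance ratio.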
# On the % scale 0 is the no-effect control and ±100 the full control effect; potency means the concentration at half of the fitted maximal effect; tags describe the fitted curve by direction and shape.
# Sequence of UniProt P16050 (P16050 whole entry, looked up): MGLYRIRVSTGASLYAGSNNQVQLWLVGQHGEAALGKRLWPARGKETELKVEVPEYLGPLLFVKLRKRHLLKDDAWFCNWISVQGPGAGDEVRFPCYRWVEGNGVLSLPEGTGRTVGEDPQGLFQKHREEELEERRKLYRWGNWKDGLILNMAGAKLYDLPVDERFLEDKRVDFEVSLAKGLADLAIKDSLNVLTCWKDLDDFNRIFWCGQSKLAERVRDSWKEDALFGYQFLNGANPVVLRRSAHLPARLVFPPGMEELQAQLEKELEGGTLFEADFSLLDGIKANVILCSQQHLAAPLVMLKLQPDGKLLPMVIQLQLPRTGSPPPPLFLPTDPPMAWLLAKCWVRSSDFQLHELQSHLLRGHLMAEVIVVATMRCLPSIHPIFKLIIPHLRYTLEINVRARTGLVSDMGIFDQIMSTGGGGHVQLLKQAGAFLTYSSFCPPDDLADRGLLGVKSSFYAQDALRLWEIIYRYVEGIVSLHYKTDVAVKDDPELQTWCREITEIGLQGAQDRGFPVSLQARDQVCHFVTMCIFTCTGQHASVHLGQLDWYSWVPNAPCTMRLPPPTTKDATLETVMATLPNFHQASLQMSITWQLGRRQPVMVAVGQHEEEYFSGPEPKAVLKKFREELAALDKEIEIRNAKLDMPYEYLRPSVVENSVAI
Structure (SMILES),Potency,"activity change, negative = inhibition"
CCOC(=O)c1cc(-c2ccccc2)sc1N,"inconclusive [inhibitor, partial curve]",
O=C(O)c1ccc(C(=O)c2ccccc2)c(C(=O)O)c1,,inactive: 1.32% [at 11.4 µM]
CCOc1ccc2nc(SC(C)C(N)=O)[nH]c2c1 (configuration not stated),,inactive: 15.1%
CCOC(=O)c1c(C)oc2cc(Br)c(O)c(Br)c12,"inconclusive [inhibitor, partial curve]",
O=C(COc1ccccc1)Nn1cnc2ccccc21,active: 12.6 µM,
COc1ccc(N(CC(=O)Nc2ccc3c(c2)OCCO3)S(=O)(=O)c2c(C)noc2C)cc1,,inactive: -11.2%
COc1ccc(O)c(C(=O)CC(=O)c2ccc(F)cc2)c1,"inconclusive [inhibitor, single point]",
Cn1c(-c2ccc(C(C)(C)C)cc2)n[nH]c1=S,"inconclusive [inhibitor, single point]",
O=c1[nH]c2[nH]c(=S)[nH]c(=S)c2[nH]1,"inconclusive [inhibitor, partial curve]",
CC(=O)C1=C(C)NC(SCC(=O)c2ccc(F)cc2)=C(C#N)C1c1ccco1 (configuration not stated),active: 20 µM,
O=C(O)CNC(=O)c1ccccc1O,,inactive: -9.44% [at 11.4 µM]
CN1CCN(c2ncc3nc(-c4cn(C)c5ccccc45)c(=O)n(CCC#N)c3n2)CC1,"inconclusive [inhibitor, single point]",
Cc1cc(C)cc(OCCCCCNCCO)c1,"inconclusive [inhibitor, single point]",
Cn1cccc1Cc1nnc(SCC(=O)Nc2cccc(F)c2)n1CCc1ccccc1,"inconclusive [inhibitor, partial curve]",
CN(C)c1ncc2nc(-c3ccc(F)cc3)c(=O)n(CCC#N)c2n1,,inactive: -2.78%
Cc1onc(-c2ccccc2)c1C(=O)Nc1sc2c(c1C#N)CCC2,"inconclusive [inhibitor, partial curve]",
CCCC(=O)n1nc(-c2ccco2)nc1SCc1ccccc1,"inconclusive [inhibitor, full curve]",
CC1(C)CC(=O)C2=C(C1)Nc1[nH]n(-c3ccccc3)c(=O)c1C2c1ccc2c(c1)OCO2 (configuration not stated),"inconclusive [inhibitor, partial curve]",
Cc1ccc2[nH]c(=O)c(CN(CCc3ccccc3)C(c3nnnn3Cc3ccco3)C(C)C)cc2c1 (configuration not stated),"inconclusive [inhibitor, partial curve]",
Cc1ccc(NC(=O)CCN2CCN(C/C=C/c3ccccc3)CC2)cc1C,"inconclusive [inhibitor, single point]",
Cc1cc(NC(=O)CCCC(=O)N(CC(=O)NC2CCCCC2)c2ccccc2)no1,active: 25.1 µM,
Cc1ccc(/C=c2\sc3nc(-c4cccs4)nn3c2=O)o1,active: 12.6 µM,
Cc1nn(-c2ccccc2)c2c1C(c1ccncc1)C(C#N)=C(N)O2 (configuration not stated),,inactive: -9.7%
Nc1ncnc2c1ncn2[C@@H]1O[C@@H](COP(=O)(O)OP(=O)(O)OP(=O)(O)OP(=O)(O)OC[C@@H]2O[C@@H](n3cnc4c(N)ncnc43)[C@@H](O)[C@H]2O)[C@H](O)[C@@H]1O,,inactive: -18.7%

Structure (SMILES),Potency,"activity change, negative = inhibition"
CSCSC1=C(C#N)C(c2ccc(Cl)cc2)C(C(C)=O)=C(C)N1 (configuration not stated),"inconclusive [inhibitor, partial curve]",
O=C(CS(=O)(=O)c1ccccc1)Nc1nc(-c2ccccc2)cs1,"inconclusive [inhibitor, partial curve]",
CN(C)c1ncc2nc(-c3cc(F)cc(F)c3)c(=O)n(Cc3cccs3)c2n1,active: 7.94 µM,
CCCS(=O)(=O)c1cn2cccc(N)c2c1S(=O)(=O)CCC,"inconclusive [inhibitor, partial curve]",
COCCNC(=O)C(C#N)c1nc2ccccc2nc1N1CCCCCC1 (configuration not stated),"inconclusive [inhibitor, single point]",
Cc1noc(C)c1-c1cc(NC2CCNCC2)ncn1,active: 15.8 µM,
CCC(=O)Nc1cc(NC(=O)CSc2ncc(-c3ccc(F)cc3)n2Cc2ccco2)ccc1C,"inconclusive [inhibitor, single point]",
CCCNC(=O)NCCc1c(C)[nH]c2ccccc12,"inconclusive [inhibitor, single point]",
N#CC(=C1CCCC1)c1nc(-c2ccccc2O)cs1,"inconclusive [inhibitor, single point]",
Cc1ccc(-n2nc(C)c(C3C(C#N)=C(N)OC4=C3C(=O)CC(C)(C)C4)c2Cl)cc1 (configuration not stated),"inconclusive [inhibitor, partial curve]",
CCn1c(Cc2ccccc2)nnc1SCC(=O)Nc1nc2ccccc2s1,active: 25.1 µM,
CSc1cccc(-n2cc(-c3ccc4c(c3)OCO4)[nH]c2=O)c1,"inconclusive [inhibitor, partial curve]",
CC(C)(C)c1ccc(O)c(O)c1,active: 3.98 µM,
O=C(CSc1nnc(C2COc3ccccc3O2)o1)N1CCCc2ccccc21 (configuration not stated),"inconclusive [inhibitor, partial curve]",
O=C1SC(SCc2ccccc2)=N/C1=C\c1ccco1,"inconclusive [inhibitor, partial curve]",
COc1ccc(Cn2nnnc2C(c2cc3cc(C)ccc3[nH]c2=O)N2CCOCC2)cc1 (configuration not stated),"inconclusive [inhibitor, single point]",
C[C@@](Cc1ccc(O)c(O)c1)(NN)C(=O)O,"inconclusive [inhibitor, partial curve]",
CN1CCN(c2ccncc2S(=O)(=O)N2CCN(C)CC2)CC1,,inactive: 13.5% [at 11.4 µM]
COc1ccccc1-c1nccc(NCc2cccnc2)n1,"inconclusive [inhibitor, single point]",
CN1CCN(c2cc(-c3ccc(N(C)C)cc3)ncn2)CC1,,inactive: -2.89%
C(=N\c1nc2ccccc2n1CCN1CCCCC1)/c1ccc2c(c1)OCO2,"inconclusive [inhibitor, partial curve]",
COc1cc2c(C=O)c3c4c(cc(OC)c(OC)c4c2cc1OC)CCN3C,"inconclusive [inhibitor, single point]",
O=C(Nc1ccc(Nc2ccccc2)cc1)c1ccco1,,inactive: -12.6%
CC(C)C(N)C(=O)OCCOCn1cnc2c(=O)[nH]c(N)nc21 (configuration not stated),,inactive: 13.5%

Structure (SMILES),Potency,"activity change, negative = inhibition"
Cc1cc(NC(=O)Nc2cccs2)no1,"inconclusive [inhibitor, single point]",
Cc1cc(-c2csc(NC(=O)c3ccc(=O)n(C)n3)n2)c(C)n1CC1CCCO1 (configuration not stated),"inconclusive [inhibitor, partial curve]",
COc1ccc(N2CCN(C(=O)C(Cc3ccccc3)n3cccc3)CC2)cc1 (configuration not stated),active: 25.1 µM,
CC(Sc1nnc(-c2ccc(O)cc2)o1)C(=O)Nc1cccc2ccccc12 (configuration not stated),"inconclusive [inhibitor, single point]",
Cc1noc(C)c1-c1cc(NC2CC2)ncn1,"inconclusive [inhibitor, partial curve]",
CC(=O)NCCNc1ccnc(-c2ccccc2C)n1,"inconclusive [inhibitor, partial curve]",
O=C(CSc1nc(-c2ccccc2)c(-c2ccccc2)o1)N1CCOCC1,"inconclusive [inhibitor, single point]",
CN(C)c1ccc(-c2nccc(NCc3cccs3)n2)cc1,"inconclusive [inhibitor, single point]",
COc1cccc(Cn2c(=O)c(-c3ccc(Cl)cc3)nc3cncnc32)c1,,inactive: -14.6%
C=CCn1c(SCc2ccc(C#N)cc2)nnc1-c1cccc(OC)c1,,inactive: -1.89%
CCN(CC)[C@@H](C)CN1c2ccccc2Sc2ccccc21,active: 12.6 µM,
COC(=O)C(NC(=O)c1ccccc1)c1ccccc1 (configuration not stated),,inactive: 6.8%
N=c1c(C(=O)NCc2ccc3c(c2)OCO3)cc2c(=O)n3ccccc3nc2n1Cc1cccnc1,"inconclusive [inhibitor, partial curve]",
CCOc1ccc(C2C(C#N)=C(N)SC(N)=C2C#N)cc1OCC,"inconclusive [inhibitor, partial curve]",
O=C(Nc1ccccc1)N1CC=C(c2ccc(F)cc2)CC1,"inconclusive [inhibitor, single point]",
CN1CCN(C(=O)c2sc(=S)n(-c3ccccc3)c2N)CC1,"inconclusive [inhibitor, partial curve]",
Cc1sc2nc(C3CC3)nc(NCCNS(C)(=O)=O)c2c1C,"inconclusive [inhibitor, partial curve]",
c1ccc(C(c2ccccc2)N2CCCC3(CCNCC3)C2)cc1,"inconclusive [inhibitor, single point]",
CN1C=CC=C/C1=C(\C#N)c1nc2ccccc2[nH]1,,inactive: -8.25%
CCCn1nnc(NC(=O)c2ccc(-c3ccccc3)cc2)n1,"inconclusive [inhibitor, partial curve]",
Cc1ccc(S(=O)(=O)NCc2ccccc2)cc1,,inactive: -2.39% [at 25.6 µM]
COc1cc(/C=C/C(=O)/C=C(O)/C=C/c2ccc(O)c(OC)c2)ccc1O,"inconclusive [inhibitor, partial curve]",
COc1ccc(N2CCN(C(=O)CCNS(=O)(=O)c3ccc4c(c3)CCC(=O)N4)CC2)cc1,"inconclusive [inhibitor, partial curve]",
CCc1ccc(N2C(=O)c3sc4nnc(C)c(=O)n4c3C2=O)cc1,,inactive: -3.32%

# Source: PubChem BioAssay AID887 (National Center for Advancing Translational Sciences (NCATS), 2007)
